In the supplement of paper PMC9135407:
Where “and” joins values, the source holds several entries; their conditions need not be identical. Equal values may be shown once. Where a name gives a salt, the structure may show the parent alone. Out of some 5,800 compounds screened, about 620 (11%) showed activity.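 The calls were made as follows: active = score above a cut-off or among the top three wells of a plate; in these data no inactive exceeds 0.85.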 This is a selection; strong and weak results do not stand in their true shares.

Tested on: primary human hepatic stellate cells (donor 1)
Assay: scaled lipid accumulation score (0 = DMSO-like, 1 = nortriptyline-like); higher = stronger HSC inactivation (lipid re-accumulation), active = hit call of the paper
Details: 48 h
[1] = library stock concentration: 3.33 mM
[2] = library stock concentration: 10 mM
[3] = library stock concentration: 15.4 mM
[4] = library stock concentration: 1 mM

N=c1ccn2c(n1)O[C@H]1[C@H](O)[C@@H](CO)O[C@H]12 [Cyclocytidine HCl]
scaled lipid accumulation score [1]: inactive: ≤ 0 | scaled lipid accumulation score (library stock concentration: 8.9 mM): inactive: ≤ 0 | scaled lipid accumulation score [2]: inactive: ≤ 0

N=c1ccn2c(n1)O[C@H]1[C@H](O)[C@@H](CO)O[C@H]12 [Ancitabine hydrochloride]
scaled lipid accumulation score [2]: inactive: 0.277 and inactive: ≤ -0.027

CNC(=O)c1ccc2cc([C@@]3(O)CCn4cncc43)ccc2c1 [TAK-700 (Orteronel)]
scaled lipid accumulation score [1]: inactive: ≤ 0 | scaled lipid accumulation score [2]: inactive: 0.084

CN(C)CCCN1c2ccccc2Sc2ccc(Cl)cc21.Cl [Chlorpromazine HCl]
scaled lipid accumulation score [2]: active: 0.833

C[C@]12C=CC(=O)C=C1CC[C@@H]1[C@@H]2[C@@H](O)C[C@@]2(C)[C@H]1CC[C@]2(O)C(=O)CO [Prednisolone]
scaled lipid accumulation score: inactive: ≤ 0 | scaled lipid accumulation score [1]: inactive: ≤ 0 | scaled lipid accumulation score [2]: inactive: 0.102 and inactive: ≤ 0

O=C(O)c1cc(=O)c2cccc(O)c2[nH]1 [Xanthurenic acid]
scaled lipid accumulation score [2]: inactive: ≤ 0

O=c1[nH]cc(F)c(=O)[nH]1 [Fluorouracil]
scaled lipid accumulation score [2]: inactive: ≤ 0 | scaled lipid accumulation score [3]: inactive: 0.007

O=c1[nH]cc(F)c(=O)[nH]1
scaled lipid accumulation score [2]: inactive: ≤ 0

O=c1[nH]cc(F)c(=O)[nH]1 [Fluorouracil (5-Fluoracil, 5-FU)]
scaled lipid accumulation score [1]: inactive: ≤ 0 | scaled lipid accumulation score [2]: inactive: ≤ 0

O=c1[nH]cc(F)c(=O)[nH]1 [5-Fluorouracil]
scaled lipid accumulation score [2]: inactive: ≤ -0.07

O=c1[nH]cc(F)c(=O)[nH]1 [5-fluorouracil]
scaled lipid accumulation score [3]: inactive: ≤ 0

N#CCNC(=O)c1ccc(-c2ccnc(Nc3ccc(N4CCOCC4)cc3)n2)cc1 [Momelotinib (CYT387) (2 mM)]
scaled lipid accumulation score (library stock concentration: 2 mM): active: 0.858

N#CCNC(=O)c1ccc(-c2ccnc(Nc3ccc(N4CCOCC4)cc3)n2)cc1 [Momelotinib (CYT387) (10 mM)]
scaled lipid accumulation score [2]: active: 0.945

CS(=O)(=O)c1ccc([C@@H](O)[C@@H](CO)NC(=O)C(Cl)Cl)cc1 [Thiamphenicol]
scaled lipid accumulation score: inactive: ≤ 0 | scaled lipid accumulation score [1]: inactive: ≤ 0 | scaled lipid accumulation score [2]: inactive: ≤ 0 and inactive: ≤ -0.026

CC(C)Cc1ccc([C@H](C)C(=O)O)cc1 [S-(+)-ibuprofen]
scaled lipid accumulation score: inactive: ≤ 0

CC(C)Cc1ccc([C@H](C)C(=O)O)cc1 [S(+)-Ibuprofen]
scaled lipid accumulation score [2]: inactive: ≤ -0.055

CCCCCCCCC#CCC#CCC#CCCCC(=O)O [5,8,11-Eicosatriynoic acid]
scaled lipid accumulation score [4]: inactive: ≤ -0.021

CCCCCCCCC#CCC#CCC#CCCCC(=O)O [5,8,11-Eicosatriynoic Acid]
scaled lipid accumulation score [4]: inactive: 0.059

C[C@@H](c1ncncc1F)[C@](O)(Cn1cncn1)c1ccc(F)cc1F
scaled lipid accumulation score (library stock concentration: 9.9 mM): inactive: ≤ 0

C[C@@H](c1ncncc1F)[C@](O)(Cn1cncn1)c1ccc(F)cc1F [Voriconazole]
scaled lipid accumulation score [1]: inactive: 0.004 | scaled lipid accumulation score [2]: inactive: ≤ 0

Cc1nn(C)c2nc(NNC(=O)Nc3cc(Cl)nc(Cl)c3)cc(C(C)C)c12
scaled lipid accumulation score [4]: inactive: ≤ 0 | scaled lipid accumulation score [2]: inactive: ≤ -0.001

O=C(O)Cc1ccccc1Nc1c(Cl)cccc1Cl [Diclofenac Diethylamine]
scaled lipid accumulation score [1]: inactive: ≤ 0 | scaled lipid accumulation score [2]: inactive: ≤ 0

O=C(O)Cc1ccccc1Nc1c(Cl)cccc1Cl [Diclofenac (sodium salt)]
scaled lipid accumulation score [4]: inactive: ≤ 0

O=C(O)Cc1ccccc1Nc1c(Cl)cccc1Cl [Diclofenac sodium]
scaled lipid accumulation score: inactive: 0.036 | scaled lipid accumulation score (library stock concentration: 6.3 mM): inactive: 0.003 | scaled lipid accumulation score [2]: inactive: ≤ -0.07 and inactive: ≤ 0

O=C(O)Cc1ccccc1Nc1c(Cl)cccc1Cl [Diclofenac Sodium]
scaled lipid accumulation score [1]: inactive: ≤ 0 | scaled lipid accumulation score [2]: inactive: 0.007

O=C(O)Cc1ccccc1Nc1c(Cl)cccc1Cl
scaled lipid accumulation score [2]: inactive: ≤ 0

O=C(O)Cc1ccccc1Nc1c(Cl)cccc1Cl [Diclofenac Potassium]
scaled lipid accumulation score [1]: inactive: ≤ 0 | scaled lipid accumulation score [2]: inactive: ≤ 0

Cc1c(NC(=O)c2ccc(C(C)(C)C)cc2)cccc1-c1cn(C)c(=O)c(Nc2ccc(C(=O)N3CCOCC3)cc2)n1
scaled lipid accumulation score [1]: inactive: ≤ 0 | scaled lipid accumulation score [2]: inactive: ≤ -0.001

CN1CCN(CCCN2c3ccccc3Sc3ccc(S(=O)(=O)N(C)C)cc32)CC1 [Thioproperazine dimesylate]
scaled lipid accumulation score: inactive: 0.733

CCCCC/C=C\C/C=C\C/C=C\CCCCCCC(=O)OCC [Dihomo-.gamma.-Linolenic Acid ethyl ester]
scaled lipid accumulation score [4]: inactive: 0.019

COc1ccc(-c2nc(C(=O)N3CCN(C)CC3)sc2-c2ccc(OC)cc2)cc1
scaled lipid accumulation score [4]: inactive: ≤ 0 | scaled lipid accumulation score [2]: inactive: 0.693

COc1ccc(CNC(=O)Nc2ncc([N+](=O)[O-])s2)cc1
scaled lipid accumulation score [2]: active: 0.864

C[C@@H]1CC(=O)NN=C1c1ccc(NN=C(C#N)C#N)cc1
scaled lipid accumulation score [2]: inactive: 0.073

C[C@@H]1CC(=O)NN=C1c1ccc(NN=C(C#N)C#N)cc1 [Levosimendan]
scaled lipid accumulation score [1]: inactive: ≤ 0 | scaled lipid accumulation score [2]: inactive: ≤ 0
